# Assay results as given in the BET-seq Pho4 binding data (Le et al. 2018).
# Some of the results follow. Values were computed here from the reads of four pooled replicates and scatter widely.
# Target: T1, Pho4 (S. cerevisiae) (UniProt P07270)
# T1 sequence: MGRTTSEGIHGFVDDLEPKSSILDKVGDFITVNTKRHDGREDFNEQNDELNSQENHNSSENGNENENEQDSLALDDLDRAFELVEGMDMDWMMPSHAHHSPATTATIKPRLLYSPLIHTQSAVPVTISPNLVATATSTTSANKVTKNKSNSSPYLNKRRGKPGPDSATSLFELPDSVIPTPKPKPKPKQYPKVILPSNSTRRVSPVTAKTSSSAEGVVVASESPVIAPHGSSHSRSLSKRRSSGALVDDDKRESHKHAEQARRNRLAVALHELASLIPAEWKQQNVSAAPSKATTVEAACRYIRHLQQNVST
# Assay: relative binding free energy (BET-seq); higher = weaker binding
# Settings: reference: library average
row,Sequence,relative binding free energy
1,TTTTGCACGTGCCGTG,-0.0837 kJ/mol
2,ATTGTCACGTGTGGCG,0.711 kJ/mol
3,GTTGTCACGTGCTTGT,0.753 kJ/mol
4,GTCTTCACGTGCTTGG,1.55 kJ/mol
5,TGTATCACGTGGATGA,0.377 kJ/mol
6,TTGTTCACGTGTGGGA,1.13 kJ/mol
7,CAATACACGTGTGGTG,0.209 kJ/mol
8,TAGGACACGTGCGGTT,0 kJ/mol
9,TATGTCACGTGGATAT,0.167 kJ/mol
10,TCGGTCACGTGGAGTG,0.126 kJ/mol
11,CTTTTCACGTGATTAT,1.3 kJ/mol
12,CCTTTCACGTGGGAGG,0.795 kJ/mol
13,TTTGTCACGTGCAAAG,0.293 kJ/mol
14,TTGTCCACGTGGAGTA,0.335 kJ/mol
15,CAATACACGTGGGTGG,-0.669 kJ/mol
16,AGGGACACGTGATTTA,0.753 kJ/mol
17,GGTATCACGTGTGGTC,0.879 kJ/mol
18,AGTTGCACGTGGCCTG,-0.293 kJ/mol
19,TACTTCACGTGTGTGT,1.05 kJ/mol
20,AATAGCACGTGTGCAT,-0.335 kJ/mol
21,TGCAGCACGTGCGTGG,-0.753 kJ/mol
22,TAGTTCACGTGATTTT,1.92 kJ/mol
23,TAGAGCACGTGGTGTA,-1.09 kJ/mol
24,TCGCGCACGTGTGGTA,0.126 kJ/mol
25,ATGGCCACGTGGCTGG,-0.837 kJ/mol

row,Sequence,relative binding free energy
1,AGTCTCACGTGGCGGG,0.0837 kJ/mol
2,GTCGGCACGTGCGTGG,-0.46 kJ/mol
3,TAGAGCACGTGTTGGA,-0.628 kJ/mol
4,ATTTTCACGTGAATGT,1.72 kJ/mol
5,AGACGCACGTGTGGTG,-0.669 kJ/mol
6,AAATTCACGTGTGGAG,0.753 kJ/mol
7,AGTGCCACGTGGGCAG,-1.05 kJ/mol
8,GTAGGCACGTGAATTT,0.837 kJ/mol
9,TGGTCCACGTGATATG,0.46 kJ/mol
10,GAAGGCACGTGCGGTA,-0.795 kJ/mol
11,AGGTTCACGTGGTGAA,0.502 kJ/mol
12,AATCTCACGTGTGGGA,0.879 kJ/mol
13,GTGGTCACGTGAATGT,1.8 kJ/mol
14,GTGTCCACGTGTATAG,0.795 kJ/mol
15,GCGGGCACGTGGTTGG,-0.335 kJ/mol
16,GAGTGCACGTGCGATT,0.0837 kJ/mol
17,GAAGACACGTGTGGGG,0.544 kJ/mol
18,GCTTGCACGTGGAGTG,-0.502 kJ/mol
19,GTTGTCACGTGTTAGA,0.586 kJ/mol
20,AGGGGCACGTGTGATA,0.126 kJ/mol
21,GTGGACACGTGGGGCT,-0.335 kJ/mol
22,GGTGACACGTGTTTTT,0.209 kJ/mol
23,GTTAACACGTGGGAAG,0.335 kJ/mol
24,AGTGTCACGTGTTAGC,0.795 kJ/mol
25,TGCATCACGTGGCGTT,0.628 kJ/mol

row,Sequence,relative binding free energy
1,TGCGACACGTGATTTG,0.669 kJ/mol
2,GCTGACACGTGAGGAT,1.84 kJ/mol
3,AGCCGCACGTGGGTTT,-0.711 kJ/mol
4,GGGACCACGTGGGTGG,-0.92 kJ/mol
5,TACTTCACGTGTGGCT,1.76 kJ/mol
6,TGCGTCACGTGCAGGA,0.0418 kJ/mol
7,CGATGCACGTGTGGAG,0.126 kJ/mol
8,GTTGTCACGTGTTTCG,0.377 kJ/mol
9,TATGTCACGTGTTTTG,0.418 kJ/mol
10,GTGGTCACGTGGTGCC,0.335 kJ/mol
11,GAAATCACGTGTGTAG,0.46 kJ/mol
12,TGAGGCACGTGGACGT,-0.418 kJ/mol
13,GTCTTCACGTGAGTTT,1.84 kJ/mol
14,TCATGCACGTGTGGTA,0.46 kJ/mol
15,TCTCGCACGTGGTGTT,-0.837 kJ/mol
16,CTGGTCACGTGAAATT,1.3 kJ/mol
17,GTGTGCACGTGGGGTA,-0.502 kJ/mol
18,GTGAGCACGTGTAAAG,0.209 kJ/mol
19,TAGCACACGTGAGGGG,1.05 kJ/mol
20,GAATTCACGTGTGTAT,1.42 kJ/mol
21,TGGGTCACGTGTGGGT,0.837 kJ/mol
22,GAGATCACGTGGGCTG,0.418 kJ/mol
23,TACTTCACGTGTAGGG,0.837 kJ/mol
24,AAGTGCACGTGTGAGA,0.209 kJ/mol
25,CGTCGCACGTGCGTGG,-0.711 kJ/mol

row,Sequence,relative binding free energy
1,CGGGCCACGTGGGTGT,-1 kJ/mol
2,GGGTTCACGTGGGGTG,1.26 kJ/mol
3,TGGGTCACGTGCTTAT,1 kJ/mol
4,TGGACCACGTGTTAGG,-0.0837 kJ/mol
5,TAGGACACGTGAGGTC,0.962 kJ/mol
6,CGGTGCACGTGACGGG,0.879 kJ/mol
7,GGCGGCACGTGGTTCG,-0.167 kJ/mol
8,GCATGCACGTGGGAGT,-0.795 kJ/mol
9,TTGTGCACGTGAGGCG,0.502 kJ/mol
10,TATAACACGTGAGGTT,1.09 kJ/mol
11,ATATTCACGTGATGAA,1.88 kJ/mol
12,GTTGGCACGTGAGGCT,0.377 kJ/mol
13,TCGGTCACGTGTTTAA,0.251 kJ/mol
14,TGGGTCACGTGCAGCG,0.544 kJ/mol
15,CAGGACACGTGTTGGG,-0.251 kJ/mol
16,GATTTCACGTGAGATG,1.51 kJ/mol
17,GCTGGCACGTGATTGG,0.251 kJ/mol
18,GTTAGCACGTGTTGAA,-0.167 kJ/mol
19,CGTGTCACGTGTGCTT,0.167 kJ/mol
20,GGCCGCACGTGGGTGG,-0.669 kJ/mol
21,CGATGCACGTGGTGAA,-0.0418 kJ/mol
22,TGGTACACGTGCAAGG,-0.46 kJ/mol
23,TCATGCACGTGGATGT,-0.377 kJ/mol
24,TTTGGCACGTGTACTG,-0.209 kJ/mol
25,CATGGCACGTGCGGTT,-0.544 kJ/mol

row,Sequence,relative binding free energy
1,GGTGGCACGTGTAGCG,0.126 kJ/mol
2,GGGGACACGTGAAATG,1.13 kJ/mol
3,GTCTGCACGTGATTAG,0.92 kJ/mol
4,TCAAGCACGTGTAGGT,-0.753 kJ/mol
5,GTGCGCACGTGGAGTT,-0.0418 kJ/mol
6,TAAATCACGTGTTGCG,0.962 kJ/mol
7,CGTGACACGTGTGGGT,0.0418 kJ/mol
8,TAGAACACGTGTCGGT,0.167 kJ/mol
9,CTGGTCACGTGTGGCA,1 kJ/mol
10,GTCGGCACGTGAGTGT,0.628 kJ/mol
11,ATGAACACGTGCGGTG,-0.167 kJ/mol
12,CAGGGCACGTGTGGTC,-0.586 kJ/mol
13,CTATTCACGTGTGTAT,0.879 kJ/mol
14,AAGTGCACGTGCTGGG,0.126 kJ/mol
15,TATTGCACGTGACTGT,0.837 kJ/mol
16,GGCGGCACGTGCGGTG,-0.293 kJ/mol
17,AAGGGCACGTGGTGTG,-1 kJ/mol
18,AGTTTCACGTGGTGTA,0.795 kJ/mol
19,TAGTGCACGTGCGTTG,-0.669 kJ/mol
20,TATTGCACGTGCAAGT,-0.126 kJ/mol
21,GTTCACACGTGCTGGG,0.377 kJ/mol
22,CTATGCACGTGGGTCT,-0.837 kJ/mol
23,GGGGTCACGTGCCGCG,-0.126 kJ/mol
24,GTTGTCACGTGGAAAA,0.418 kJ/mol
25,TGGTACACGTGGAGGA,0.335 kJ/mol

row,Sequence,relative binding free energy
1,ATGGACACGTGAGGGG,0.711 kJ/mol
2,GTGGTCACGTGTAGGT,0.628 kJ/mol
3,AGTTCCACGTGGGGGA,-0.251 kJ/mol
4,TCTTACACGTGGGGCG,0.0418 kJ/mol
5,GGAGGCACGTGAAGAG,0.92 kJ/mol
6,TTTTACACGTGGGAGT,0.669 kJ/mol
7,GTGCTCACGTGTGTAG,1 kJ/mol
8,TAGAGCACGTGGTTTT,-0.544 kJ/mol
9,AAGCGCACGTGTAATG,0.92 kJ/mol
10,TTATACACGTGGCAGT,-0.753 kJ/mol
11,GTGCACACGTGGAGAG,0.502 kJ/mol
12,TAGGGCACGTGAATAG,0.46 kJ/mol
13,GAGTGCACGTGGTGTA,0.209 kJ/mol
14,ATAGTCACGTGGGTTC,0.167 kJ/mol
15,AGATTCACGTGGATGT,1.55 kJ/mol
16,TGATTCACGTGCGGTA,1.34 kJ/mol
17,TTGTGCACGTGAGCGA,-0.0418 kJ/mol
18,ATGTTCACGTGCTGTA,0.586 kJ/mol
19,CATGTCACGTGGTGTG,-0.126 kJ/mol
20,AAGATCACGTGATTAT,1.46 kJ/mol
21,ACATGCACGTGTATGG,-0.0418 kJ/mol
